The source of these data is publication PMC6919601, “Identification of Plasmodium dipeptidyl aminopeptidase allosteric inhibitors by high throughput screening” (PLoS ONE, 2019).

Among all 110,000 compounds or so, about 230 (0.21%) showed an effect of 50% or more. The list shows a part of the results.
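Also: 30 min substrate incubation versus DMSO and 10 µM JCP410 controls.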

Sequence of DPAP1 (Q8IIJ9 whole entry, looked up): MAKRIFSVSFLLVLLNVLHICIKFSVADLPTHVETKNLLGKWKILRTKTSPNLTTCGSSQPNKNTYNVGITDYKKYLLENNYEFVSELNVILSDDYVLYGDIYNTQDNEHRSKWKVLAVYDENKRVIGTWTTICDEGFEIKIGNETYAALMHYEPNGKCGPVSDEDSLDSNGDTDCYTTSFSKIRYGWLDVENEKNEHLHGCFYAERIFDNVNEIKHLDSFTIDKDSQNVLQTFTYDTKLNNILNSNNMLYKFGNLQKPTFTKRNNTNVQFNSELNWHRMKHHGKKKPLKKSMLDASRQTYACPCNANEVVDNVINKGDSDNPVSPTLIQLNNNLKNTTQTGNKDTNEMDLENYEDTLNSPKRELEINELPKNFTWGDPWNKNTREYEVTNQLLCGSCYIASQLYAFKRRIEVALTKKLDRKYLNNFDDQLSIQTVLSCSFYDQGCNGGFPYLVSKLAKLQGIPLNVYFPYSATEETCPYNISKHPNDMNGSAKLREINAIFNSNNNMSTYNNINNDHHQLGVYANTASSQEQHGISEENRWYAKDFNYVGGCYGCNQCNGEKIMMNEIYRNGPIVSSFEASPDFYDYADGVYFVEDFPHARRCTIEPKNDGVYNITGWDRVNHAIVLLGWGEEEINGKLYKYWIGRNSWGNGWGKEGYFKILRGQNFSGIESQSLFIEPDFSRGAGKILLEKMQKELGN

The experiment addresses DPAP1 (Plasmodium falciparum, UniProt Q8IIJ9). The experiment is described as follows: primary screen, percent inhibition; read by cleavage of a fluorogenic dipeptide substrate; higher = more effect of the substance. Also on record: species or system P. falciparum D10 trophozoite lysates; single well.
Consider `COc1ccc(CC(=O)Nc2cc(C)ccc2C)cc1`, for which the “% Inhibition @ 10 uM” value is recorded as -3.04%.
The same measure for `CC(C)(C)NC(=O)Cn1cnc2c(cnn2-c2ccccc2)c1=O`: 7.16%; for `CCc1c(C)sc(NC(=O)Cc2ccc(OC)cc2)c1C#N`: -2.53%; for `CC(C)c1ccc(S(=O)(=O)N2CCCCC2)cc1`: -6.32%.
Take `O=[N+]([O-])c1ccccc1CNC1CCCC1`: the “% Inhibition @ 10 uM” value is 3.42%.
Under `Cc1nc2cc(Cl)cc(Cl)c2c(=O)n1-c1ccccc1Cl` stands -1.5%; under `COC(=O)C1=C(C)N(CCc2ccccc2)C(=O)/C1=C\c1cc(C)n(-c2ccccc2F)c1C`, -3.63%; under `COc1cc2c(cc1OC)C(C(=O)NCCC1=CCCCC1)C(c1cccs1)N(C)C2=O` (stereo not drawn), 3.33%.
Take `CN(C)CC1CSCCC1(O)c1ccc(C(F)(F)F)cc1` (stereo not drawn): the “% Inhibition @ 10 uM” value is recorded as -11.2%.
For the compound `Cn1ncc2c(N3CCN(CCO)CC3)ncnc21`, the “% Inhibition @ 10 uM” value was found to be 2.56%.
The same measure for `C=C(C)Cn1c(-c2ccccc2)nc2ccccc21`: 5.81%; for `CSc1nnc(NC(=O)c2cc(=O)c3cc(Cl)ccc3o2)s1`: -5.08%.
As for `CC1CN(Cc2ccc(Cl)c(Cl)c2)CC(C)O1` (stereo not drawn), the “% Inhibition @ 10 uM” value is recorded as -4.15%.
Under `Cc1ccc(CNC(=O)Cn2ccn(Cc3ccc(Cl)cc3)c(=O)c2=O)cc1` stands -2.88%.
As for `O=C(O)c1ccc(CNCCc2ccccc2Cl)s1`, the “% Inhibition @ 10 uM” value was 7.62%.
Under `CCCCOc1ccc(-c2nc(-c3ccc(Br)cc3)no2)cc1` stands -2.32%.
Under `COCCCNC(=O)C1c2ccccc2C(=O)N(CCOC)C1c1cccs1` (stereo not drawn) stands -1.52%; under `CCOc1ccc2c(c1)C(SCC(=O)N1CCN(c3ncccn3)CC1)CC1(CCCCC1)O2` (stereo not drawn), -7.78%; under `CCOc1ccc(-c2nc(CSCC(=O)N3CCCC3)c(C)o2)cc1`, 0.718%.
As for `O=C(CCCn1nc(-c2ccccc2)c2ccccc21)NCc1ccc2c(c1)OCO2`, the “% Inhibition @ 10 uM” value was -6.68%.
The same measure for `O=C(COc1ccc(Br)cc1)Nc1ccc(N2CCN(C(=O)c3ccccc3)CC2)cc1`: 0.755%.
Under `O=C(NCc1ccco1)c1ccc(CS(=O)(=O)c2cccc(C(F)(F)F)c2)o1` stands -1.28%; under `Cc1ccc(-c2ccc(/C=C3/C(=N)N4C(=NC3=O)SN=C4S(C)(=O)=O)o2)cc1Cl`, -3.39%; under `CCOc1ccc(C2CC(c3cccc(OC)c3)Nc3nc(N)nn32)cc1` (stereo not drawn), -1.86%.
The same measure for `O=C(NCCSc1c(-c2ccccc2)[nH]c2ccccc12)C1CC1`: 1.85%.
For the compound `c1cc2c(cc1CN1CCCCCC1)OCO2`, the “% Inhibition @ 10 uM” value is reported as 1.27%.
On to `O=C(C1CCN(c2nn3cc(-c4ccc(F)cc4)nc3s2)CC1)N1CCCCCC1`, for which the “% Inhibition @ 10 uM” value is recorded as -4.1%.
The same measure for `CSc1ccc(/C=C2/SC(=O)N(CN3CCOCC3)C2=O)cc1`: -0.661%; for `O=C(Nc1ccccc1C(=O)N1CCCCC1)C1CCCCC1`: 4.11%.
The same measure for `COc1ccc(C2C3=C(O)CC(C)(C)CC3=NC3=C2C(=O)CC(C)(C)C3)cc1Br` (stereo not drawn): -2.54%; for `Cc1ccc(/C=C(\C#N)c2nn(-c3ccccc3)c(N)c2C#N)o1`: -2.39%.
The same measure for `Cc1cccc(C(=O)O/N=C(\N)c2cccnc2)c1`: 3.79%; for `CCOC(=O)Nc1scc(-c2cc(C)ccc2C)c1C#N`: -1.98%.
For `Cc1sc2nc(SCCCC(=O)NCCO)nc(O)c2c1C`, the “% Inhibition @ 10 uM” value is -4.76%.
Under `Nc1ncnc2c1nc(S)n2Cc1ccccc1` stands 1.96%; under `Clc1ccc(-c2nc3n(n2)CCCS3)cc1`, 0.124%.
Under `O=C(c1cccc(C(=O)N2CCN(Cc3ccccc3)CC2)c1)N1CCN(Cc2ccccc2)CC1` stands -9.66%.
Under `N#Cc1c(N)nc2c(c1-c1ccc(Cl)cc1Cl)CCCCCC2` stands -3.13%; under `Cc1ccc(NC(=O)CNCc2ccco2)cc1Cl`, 0.605%.
Consider `O=C(O)c1ccc(NS(=O)(=O)c2ccc(Br)cc2)cc1`, for which the “% Inhibition @ 10 uM” value was -1.52%.
Regarding `CCC(C)NC(=O)c1ccccc1C(=O)NC(C)CC` (stereo not drawn), the “% Inhibition @ 10 uM” value is -4.21%.
Under `COc1cc(S(=O)(=O)NCCOc2ccccc2)c(OC)c2c(C)cc(O)nc12` stands -3.75%.
For the compound `CCOC(=O)c1sc(NC(=O)/C(C#N)=C/c2ccccc2)nc1C`, the “% Inhibition @ 10 uM” value is recorded as 3.86%.
Under `NC(=O)c1cc(S(=O)(=O)NCCN(Cc2ccco2)C2CCCC2)cs1` stands -1.23%.
The same measure for `O=C(O)c1ccccc1C(=O)N(Cc1ccccc1)Cc1ccccc1`: -0.95%; for `O=C(NCc1ccc2c(c1)OCO2)c1cnc2ccc(S(=O)(=O)N3CCOCC3)cc2c1O`: -0.256%.
Consider `O=C(Cn1ncc2c1-c1ccccc1OC2)NC1CCCCC1`, for which the “% Inhibition @ 10 uM” value is recorded as 0.0579%.
Under `CCOC(=O)c1ccc(-n2c(C)cc(C=C3C(=O)N(C)C(=O)N(C)C3=O)c2C)cc1` stands 4.95%; under `CCOc1ccc(-c2nonc2NC(=O)c2ccc(OC)c(Cl)c2)cc1OCC`, 0.248%.
As to `CCCCCn1c(C)c(C(=O)O)c(O)c(-c2ccccc2)c1=O`, the “% Inhibition @ 10 uM” value worked out at 2.36%.
As to `O=C1N=C(N2CCCCC2)S/C1=C\c1ccc(Br)cc1`, the “% Inhibition @ 10 uM” value is 2.45%.
Under `COC(=O)c1c(S)nc2ccccc2c1O` stands -7.62%.
Under `CCC(C)NC(=O)CN1C(=O)CSc2nc(C)cc(C)c21` (stereo not drawn) stands -2.37%; under `Cc1ccc(C)c2nc(O)c(CCN3C(=O)c4ccccc4C3=O)cc12`, 3.67%; under `CCSc1ncc(Cl)c(C(=O)Nc2sc3c(c2C(N)=O)CCCC3)n1`, 2.19%.
Under `CC(Sc1nc2ccccc2[nH]1)c1ccccc1` (stereo not drawn) stands 4.59%; under `COc1ccc(CN(C)S(=O)(=O)c2nnc(NC(=O)c3ccccc3Br)s2)cc1`, 0.709%; under `C=CC/N=c1\scc(-c2ccc(Cl)cc2)n1CC=C`, -4.39%.
For the compound `CCCS(=O)(=O)c1ncc(Cl)c(C(=O)NCc2ccccc2)n1`, the “% Inhibition @ 10 uM” value is -4.64%.
As to `COc1ccc(N2C(=O)c3ccccc3NC2c2ccc(OC)c(CN3CCOCC3)c2)cc1` (stereo not drawn), the “% Inhibition @ 10 uM” value is -3.67%.
For `CCO/C(O)=C(\C(C)=N\Cc1ccccc1)c1cc(O)c(Cl)c(Cl)c1O`, the “% Inhibition @ 10 uM” value is 3.79%.
The same measure for `COc1ccc(/C=C2\SC(=O)N(CCC(=O)Nc3cccc(O)c3)C2=O)cc1OC`: 0.83%.
The same measure for `COC(=O)C1=CN(C)C=C(C(=O)OC)C1c1ccccc1F`: 4.99%; for `CCOc1ccc(N(CC(=O)N2CCC(C)CC2)S(=O)(=O)c2ccc(Cl)cc2)cc1`: -1.36%; for `CC(C)CCn1c(O)nc2ccccc21`: 10.4%.
The same measure for `Cc1cccc(C)c1NC(=O)C1(NC(=O)c2ccccc2F)CCCC1`: -3.98%; for `COc1ccc2[nH]cc(CCN(Cc3ccccc3)Cc3ccccc3)c2c1`: 3.16%.
As to `Cc1nc2ccccc2n1Cc1ccc(C(C)C)cc1`, the “% Inhibition @ 10 uM” value came out at 1.12%.
Regarding `CCCNC(=O)Cn1cc2c(n1)-c1c(oc(C(=O)N3CCCC3)c1C)CC2`, the “% Inhibition @ 10 uM” value is 3.35%.
Under `COC(=O)c1c(NC(=O)c2c(-c3ccccc3)noc2C)sc(C(=O)N(C)C)c1C` stands 5.52%; under `COc1ccccc1C(=O)C(C)C(=O)c1ccccc1` (stereo not drawn), -1.07%; under `C=CCc1ccc(OCC(O)CN2CCCCC2)c(OC)c1` (stereo not drawn), -1.66%.
On to `O=C(NCCCN1CCN(Cc2ccccc2)CC1)c1cnn(-c2ccccc2)c1-n1cccc1`, for which the “% Inhibition @ 10 uM” value was 0.137%.
Under `O=c1cccc2n1C[C@H]1C[C@@H]2CN(Cc2cccc(F)c2)C1` stands 1.8%.
The same measure for `COc1ccc(S(=O)(=O)N(CC(=O)NCC2CCCO2)c2ccc(C)cc2)cc1Br` (stereo not drawn): -10.2%; for `COc1ccc(C)cc1NC(=O)COc1ccc(Br)cc1`: 2.45%; for `O=C(NCc1ccccc1Cl)c1ccc(CNc2c(NC3CCCC3)c(=O)c2=O)cc1`: 6.3%.
The same measure for `Cc1cc(C(=O)Nc2sc3c(c2C#N)CCC(C(C)(C)C)C3)no1` (stereo not drawn): 2.4%; for `Cc1cc(C)c2c(NC(=O)c3ccccc3Cl)nn(C)c2n1`: 19.6%.
Consider `CCOC(=O)C1=C(C)N=c2s/c(=C\c3ccccc3F)c(=O)n2C1/C=C/c1ccccc1` (stereo not drawn), for which the “% Inhibition @ 10 uM” value is -6.08%.
Turning to `CCN(CC)C(=O)c1ccc(CS(=O)c2ccccc2Cl)o1` (stereo not drawn), the “% Inhibition @ 10 uM” value came to 2.3%.
For `COCCNc1sc(S(=O)(=O)c2ccccc2)nc1S(=O)(=O)c1ccc(C)cc1`, the “% Inhibition @ 10 uM” value is recorded as -5.15%.
For `S=C(Nc1ccccc1)N1CCn2c3c(c4cc(C5CCCCC5)ccc42)CCCC31` (stereo not drawn), the “% Inhibition @ 10 uM” value came out at 3.15%.
Consider `Cc1nc(-c2ccc(NC(=O)c3ccncc3)cc2)cs1`, for which the “% Inhibition @ 10 uM” value turned out to be 0.583%.
Consider `CCC(Sc1nc(N)c(C#N)c(-c2ccccc2)c1C#N)C(=O)Nc1cc(C)on1` (stereo not drawn), for which the “% Inhibition @ 10 uM” value was 4.32%.
`CC1CCC(NCCc2ccc3c(c2)OCO3)CC1` (stereo not drawn): the “% Inhibition @ 10 uM” value is given as -10.6%.
In the case of `COCc1cc(C)nc2sc(C(=O)c3ccc(Cl)cc3Cl)c(N)c12`, the “% Inhibition @ 10 uM” value is 1.57%.
The same measure for `COc1ccc(CN2CCN(Cc3cccc(F)c3)CC2)c(OC)c1`: -11.4%; for `O=C(O)CN1CCN(Cc2ccc(F)cc2Cl)C1=O`: -4.16%.
The same measure for `CC(C)COc1ccc(C=C2C(=O)NC(=O)NC2=O)cc1Br`: 20.5%; for `CN(CCNc1ncnc2onc(-c3ccc(Cl)cc3)c12)C1CCCCC1`: 1.15%.
`N#C/C(=C\C=C\c1ccccc1)c1nc2ccccc2[nH]1`: the “% Inhibition @ 10 uM” value is listed as -2.98%.
The same measure for `CCC1C(=O)N=C(SCC(=O)NC2CCCCC2)NC1=O` (stereo not drawn): -4.41%; for `Clc1cccc(N2CCN(Cc3ccccc3Cl)CC2)c1`: -1.38%.
The same measure for `CC1=CCC(C(C)(C)NC(=O)c2ccccc2)C/C1=N/O` (stereo not drawn): 4.63%.
With `O=C(c1ccc(CS(=O)(=O)Cc2cccc(Cl)c2)o1)N1CCOCC1`, the “% Inhibition @ 10 uM” value came out at 0.718%.
The same measure for `Cc1cc(C)c(C#N)c(SCC(=O)c2cccc(Br)c2)n1`: -2.8%; for `Cc1ccccc1OCc1nc2c3c(C)c(C)oc3ncn2n1`: 0.098%; for `Cn1ncc2c(NCCCO)ncnc21`: 0.258%.
Under `COCCCNC(=O)CSc1nc2c(sc3ccccc32)c(=O)n1Cc1cccnc1` stands 4.02%; under `CCCNC(=O)c1ccc2c(c1)nc(C)n2-c1cccc(Cl)c1`, 1.42%.
The same measure for `CCc1nnc2c3c4c(sc3ncn12)CCCC4`: -2.62%.
